Patent US7592316B2, “Peptides as NS3-serine protease inhibitors of hepatitis C virus” (Schering Corporation, priority 2000, dated 2009)
*1 amine or outer side, *2 acyl side, *3 side chain or, on linkers, in order; H or OH if unused. Where a SMILES comes first, the peptide text is derived from it. [ ]: non-standard residue; d: D form. The star is where a group is joined. ξ: configuration not given here. Pro(4,4-S(CH2)3S) = O=C(O)[C@@H]1CC2(CN1)SCCCS2; Isobutyloxycarbonyl = CC(C)COC(=O)*; Cyclopentylacetyl = O=C(CC1CCCC1)*; X15 = CC(=O)Nc1ccc(S(=O)(=O)*)cc1; X4 = CCCCC(N[*:1])C(=O)C(=O)[*:2]; X2 = CCCC(N[*:1])C(=O)C(=O)[*:2]; Benzyl(4-Cl) = Clc1ccc(C*)cc1; Chg = N[C@H](C(=O)O)C1CCCCC1; Phg = N[C@H](C(=O)O)c1ccccc1; Tle = CC(C)(C)[C@H](N)C(=O)O; X13 = c1ccc(-c2ccccc2C*)cc1; X22 = CC(C)(C)c1ccc(C*)cc1; ξPhg = NC(C(=O)O)c1ccccc1; X56 = O=C(OC1CCOCC1)*; X45 = O=C(OC1CCCC1)*; N(Me)OMe = CON(C)*; OtBu = CC(C)(C)O*

Target: HCV NS3/NS4A protease (strain 1a) (Hepatitis C virus genotype 1a, UniProt P27958)
Assay: biochemical
Conditions: HCV protease continuous assay results, Table 1; read-out: Ki* Range

Row | Compound | Ki [nM]
1 | CCCC(NC(=O)[C@@H]1CC2(CN1C(=O)[C@@H](NC(=O)OCC(C)C)[C@@H](C)OCc1ccc(Cl)cc1)SCCCS2)C(=O)C(=O)NCC(=O)N[C@H](C(=O)O)c1ccccc1 (stereo partly drawn) [Example 113] (Isobutyloxycarbonyl-T(Benzyl(4-Cl))[Pro(4,4-S(CH2)3S)][X2]G[Phg]-OH) | 101 to 1000
2 | CCCC(NC(=O)[C@@H]1CC2(CN1C(=O)[C@@H](NC(=O)OCC(C)C)[C@@H](C)OCc1ccc(C(C)(C)C)cc1)SCCCS2)C(=O)C(=O)NCC(=O)N[C@H](C(=O)O)c1ccccc1 (stereo partly drawn) [Example 114] (Isobutyloxycarbonyl-T(X22)[Pro(4,4-S(CH2)3S)][X2]G[Phg]-OH) | 1 to 100
3 | CCCC(NC(=O)[C@@H]1CC2(CN1C(=O)[C@@H](NC(=O)OCC(C)C)[C@@H](C)OCc1ccc(Cl)cc1)SCCCS2)C(=O)C(=O)NCC(=O)N[C@H](C(=O)N(C)C)c1ccccc1 (stereo partly drawn) [Example 115] (Isobutyloxycarbonyl-T(Benzyl(4-Cl))[Pro(4,4-S(CH2)3S)][X2]G[Phg]-NMe2) | 101 to 1000
4 | CCCC(NC(=O)[C@@H]1CC2(CN1C(=O)[C@@H](NC(=O)[C@H](CC(C)C)NC(C)=O)C1CCCCC1)SCCCS2)C(=O)C(=O)NCC(=O)NC(C(=O)OC(C)(C)C)c1ccccc1 (stereo partly drawn) [Example 116] (Ac-L[Chg][Pro(4,4-S(CH2)3S)][X2]G[ξPhg]-OtBu) | 1 to 100
5 | CCCC(NC(=O)[C@@H]1CC2(CN1C(=O)[C@@H](NC(=O)[C@H](CC(C)C)NC(C)=O)C1CCCCC1)SCCCS2)C(=O)C(=O)NCC(=O)NC(C(=O)O)c1ccccc1 (stereo partly drawn) [Example 117] (Ac-L[Chg][Pro(4,4-S(CH2)3S)][X2]G[ξPhg]-OH) | 1 to 100
6 | CCCC(NC(=O)[C@@H]1CC2(CN1C(=O)[C@@H](NC(=O)[C@H](CC(C)C)NC(C)=O)C1CCCCC1)SCCCS2)C(=O)C(=O)NCC(=O)NC(C(N)=O)c1ccccc1 (stereo partly drawn) [Example 118] (Ac-L[Chg][Pro(4,4-S(CH2)3S)][X2]G[ξPhg]-NH2) | 1 to 100
7 | CCCC(NC(=O)[C@@H]1CC2(CN1C(=O)[C@@H](NC(=O)[C@H](CC(C)C)NC(C)=O)C1CCCCC1)SCCCS2)C(=O)C(=O)NCC(=O)NC(C(=O)N(C)C)c1ccccc1 (stereo partly drawn) [Example 119] (Ac-L[Chg][Pro(4,4-S(CH2)3S)][X2]G[ξPhg]-NMe2) | 1 to 100
8 | CCCC(NC(=O)[C@@H]1CC2(CN1C(=O)[C@@H](NC(=O)[C@H](CC(C)C)NC(C)=O)C1CCCCC1)SCCCS2)C(=O)C(=O)NCC(=O)NC(C(=O)N(C)OC)c1ccccc1 (stereo partly drawn) [Example 120] (Ac-L[Chg][Pro(4,4-S(CH2)3S)][X2]G[ξPhg]-{N(Me)OMe}) | 1 to 100
9 | CCCC(NC(=O)[C@@H]1CC2(CN1C(=O)[C@@H](NC(=O)OCC(C)C)[C@@H](C)OCc1ccccc1-c1ccccc1)SCCCS2)C(=O)C(=O)NCC(=O)N[C@H](C(=O)O)c1ccccc1 (stereo partly drawn) [Example 121] (Isobutyloxycarbonyl-T(X13)[Pro(4,4-S(CH2)3S)][X2]G[Phg]-OH) | 101 to 1000
10 | CCCC(NC(=O)[C@@H]1CC2(CN1C(=O)[C@@H](NS(=O)(=O)c1ccc(NC(C)=O)cc1)C1CCCCC1)SCCCS2)C(=O)C(=O)NCC(=O)NC(C(=O)OC(C)(C)C)c1ccccc1 (stereo partly drawn) [Example 122] (X15-[Chg][Pro(4,4-S(CH2)3S)][X2]G[ξPhg]-OtBu) | 101 to 1000
11 | CCCC(NC(=O)[C@@H]1CC2(CN1C(=O)[C@@H](NS(=O)(=O)c1ccc(NC(C)=O)cc1)C1CCCCC1)SCCCS2)C(=O)C(=O)NCC(=O)NC(C(=O)O)c1ccccc1 (stereo partly drawn) [Example 123] (X15-[Chg][Pro(4,4-S(CH2)3S)][X2]G[ξPhg]-OH) | 1 to 100
12 | CCCC(NC(=O)[C@@H]1CC2(CN1C(=O)[C@@H](NS(=O)(=O)c1ccc(NC(C)=O)cc1)C1CCCCC1)SCCCS2)C(=O)C(=O)NCC(=O)NC(C(N)=O)c1ccccc1 (stereo partly drawn) [Example 124] (X15-[Chg][Pro(4,4-S(CH2)3S)][X2]G[ξPhg]-NH2) | 101 to 1000
13 | CCCC(NC(=O)[C@@H]1CC2(CN1C(=O)[C@@H](NS(=O)(=O)c1ccc(NC(C)=O)cc1)C1CCCCC1)SCCCS2)C(=O)C(=O)NCC(=O)NC(C(=O)C(C)C)c1ccccc1 (stereo partly drawn) [Example 125] | 101 to 1000
14 | CCCC(NC(=O)[C@@H]1CC2(CN1C(=O)[C@@H](NC(=O)OC1CCOCC1)C1CCCCC1)SCCCS2)C(=O)C(=O)NCC(=O)NC(C(=O)OC(C)(C)C)c1ccccc1 (stereo partly drawn) [Example 126] (X56-[Chg][Pro(4,4-S(CH2)3S)][X2]G[ξPhg]-OtBu) | 101 to 1000
15 | CCCC(NC(=O)[C@@H]1CC2(CN1C(=O)[C@@H](NC(=O)OC1CCOCC1)C1CCCCC1)SCCCS2)C(=O)C(=O)NCC(=O)NC(C(=O)O)c1ccccc1 (stereo partly drawn) [Example 127] (X56-[Chg][Pro(4,4-S(CH2)3S)][X2]G[ξPhg]-OH) | 1 to 100
16 | CCCC(NC(=O)[C@@H]1CC2(CN1C(=O)[C@@H](NC(=O)OC1CCOCC1)C1CCCCC1)SCCCS2)C(=O)C(=O)NCC(=O)NC(C(N)=O)c1ccccc1 (stereo partly drawn) [Example 128] (X56-[Chg][Pro(4,4-S(CH2)3S)][X2]G[ξPhg]-NH2) | 1 to 100
17 | CCCC(NC(=O)[C@@H]1CC2(CN1C(=O)[C@@H](NC(=O)OC1CCOCC1)C1CCCCC1)SCCCS2)C(=O)C(=O)NCC(=O)NC(C(=O)N(C)C)c1ccccc1 (stereo partly drawn) [Example 129] (X56-[Chg][Pro(4,4-S(CH2)3S)][X2]G[ξPhg]-NMe2) | 1 to 100

Row | Compound | Ki [nM]
18 | CCCC(NC(=O)[C@@H]1CC2(CN1C(=O)[C@@H](NC(=O)OCC(C)C)C(C)(C)C)SCCCS2)C(=O)C(=O)NCC(=O)NC(C(=O)OC(C)(C)C)c1ccccc1 (stereo partly drawn) [Example 130] (Isobutyloxycarbonyl-[Tle][Pro(4,4-S(CH2)3S)][X2]G[ξPhg]-OtBu) | 101 to 1000
19 | CCCC(NC(=O)[C@@H]1CC2(CN1C(=O)[C@@H](NC(=O)OCC(C)C)C(C)(C)C)SCCCS2)C(=O)C(=O)NCC(=O)NC(C(=O)O)c1ccccc1 (stereo partly drawn) [Example 131] (Isobutyloxycarbonyl-[Tle][Pro(4,4-S(CH2)3S)][X2]G[ξPhg]-OH) | 1 to 100
20 | CCCC(NC(=O)[C@@H]1CC2(CN1C(=O)[C@@H](NC(=O)OCC(C)C)C(C)(C)C)SCCCS2)C(=O)C(=O)NCC(=O)NC(C(N)=O)c1ccccc1 (stereo partly drawn) [Example 132] (Isobutyloxycarbonyl-[Tle][Pro(4,4-S(CH2)3S)][X2]G[ξPhg]-NH2) | 1 to 100
21 | CCCC(NC(=O)[C@@H]1CC2(CN1C(=O)[C@@H](NC(=O)OCC(C)C)C(C)(C)C)SCCCS2)C(=O)C(=O)NCC(=O)NC(C(=O)N(C)C)c1ccccc1 (stereo partly drawn) [Example 133] (Isobutyloxycarbonyl-[Tle][Pro(4,4-S(CH2)3S)][X2]G[ξPhg]-NMe2) | 1 to 100
22 | CCCC(NC(=O)[C@@H]1CC2(CN1C(=O)[C@@H](NC(=O)CC1CCCC1)C1CCCCC1)SCCCS2)C(=O)C(=O)NCC(=O)NC(C(=O)OC(C)(C)C)c1ccccc1 (stereo partly drawn) [Example 134] (Cyclopentylacetyl-[Chg][Pro(4,4-S(CH2)3S)][X2]G[ξPhg]-OtBu) | 101 to 1000
23 | CCCC(NC(=O)[C@@H]1CC2(CN1C(=O)[C@@H](NC(=O)CC1CCCC1)C1CCCCC1)SCCCS2)C(=O)C(=O)NCC(=O)NC(C(=O)O)c1ccccc1 (stereo partly drawn) [Example 135] (Cyclopentylacetyl-[Chg][Pro(4,4-S(CH2)3S)][X2]G[ξPhg]-OH) | 1 to 100
24 | CCCC(NC(=O)[C@@H]1CC2(CN1C(=O)[C@@H](NC(=O)CC1CCCC1)C1CCCCC1)SCCCS2)C(=O)C(=O)NCC(=O)NC(C(=O)N(C)C)c1ccccc1 (stereo partly drawn) [Example 136] (Cyclopentylacetyl-[Chg][Pro(4,4-S(CH2)3S)][X2]G[ξPhg]-NMe2) | 1 to 100
25 | CCCC(NC(=O)[C@@H]1CC2(CN1C(=O)[C@@H](NC(=O)CC1CCCC1)C1CCCCC1)SCCCS2)C(=O)C(=O)NCC(=O)NC(C(=O)N(C)OC)c1ccccc1 (stereo partly drawn) [Example 137] (Cyclopentylacetyl-[Chg][Pro(4,4-S(CH2)3S)][X2]G[ξPhg]-{N(Me)OMe}) | 1 to 100
26 | CCCC(NC(=O)[C@@H]1CC2(CN1C(=O)[C@@H](NC(=O)OC1CCCC1)C1CCCCC1)SCCCS2)C(=O)C(=O)NCC(=O)NC(C(=O)O)c1ccccc1 (stereo partly drawn) [Example 138] (X45-[Chg][Pro(4,4-S(CH2)3S)][X2]G[ξPhg]-OH) | 1 to 100
27 | CCCC(NC(=O)[C@@H]1CC2(CN1C(=O)[C@@H](NC(=O)OC1CCCC1)C1CCCCC1)SCCCS2)C(=O)C(=O)NCC(=O)NC(C(=O)N(C)C)c1ccccc1 (stereo partly drawn) [Example 139] (X45-[Chg][Pro(4,4-S(CH2)3S)][X2]G[ξPhg]-NMe2) | 1 to 100
28 | CCCCC(NC(=O)[C@@H]1CC2(CN1C(=O)[C@@H](NC(=O)OCC(C)C)C1CCCCC1)SCCCS2)C(=O)C(=O)NCC(=O)NC(C(=O)OC(C)(C)C)c1ccccc1 (stereo partly drawn) [Example 140] (Isobutyloxycarbonyl-[Chg][Pro(4,4-S(CH2)3S)][X4]G[ξPhg]-OtBu) | 101 to 1000
29 | CCCCC(NC(=O)[C@@H]1CC2(CN1C(=O)[C@@H](NC(=O)OCC(C)C)C1CCCCC1)SCCCS2)C(=O)C(=O)NCC(=O)NC(C(=O)O)c1ccccc1 (stereo partly drawn) [Example 141] (Isobutyloxycarbonyl-[Chg][Pro(4,4-S(CH2)3S)][X4]G[ξPhg]-OH) | 1 to 100
30 | CCCCC(NC(=O)[C@@H]1CC2(CN1C(=O)[C@@H](NC(=O)OCC(C)C)C1CCCCC1)SCCCS2)C(=O)C(=O)NCC(=O)NC(C(=O)N(C)C)c1ccccc1 (stereo partly drawn) [Example 142] (Isobutyloxycarbonyl-[Chg][Pro(4,4-S(CH2)3S)][X4]G[ξPhg]-NMe2) | 1 to 100
31 | CCCCC(NC(=O)[C@@H]1CC2(CN1C(=O)[C@@H](NC(=O)OCC(C)C)C1CCCCC1)SCCCS2)C(=O)C(=O)NCC(=O)NC(C(=O)N(C)OC)c1ccccc1 (stereo partly drawn) [Example 143] (Isobutyloxycarbonyl-[Chg][Pro(4,4-S(CH2)3S)][X4]G[ξPhg]-{N(Me)OMe}) | 101 to 1000
32 | CCCC(NC(=O)[C@@H]1CC2(CN1C(=O)[C@@H](NC(=O)OCC(C)C)[C@@H](C)OCc1ccc(C(C)(C)C)cc1)SCCCS2)C(=O)C(=O)NCC(=O)N[C@H](C(=O)N(C)C)c1ccccc1 (stereo partly drawn) [Example 144] (Isobutyloxycarbonyl-T(X22)[Pro(4,4-S(CH2)3S)][X2]G[Phg]-NMe2) | 101 to 1000
33 | CCCC(NC(=O)[C@@H]1CC2(CN1C(=O)[C@@H](NC(=O)OCC(C)C)[C@@H](C)OCc1ccccc1-c1ccccc1)SCCCS2)C(=O)C(=O)NCC(=O)N[C@H](C(=O)N(C)C)c1ccccc1 (stereo partly drawn) [Example 145] (Isobutyloxycarbonyl-T(X13)[Pro(4,4-S(CH2)3S)][X2]G[Phg]-NMe2) | > 1000
